The other results are listed elsewhere or left out. Cut-off read from the data, not from the text of the source: active = 3.2 or more and inactive = the rest. Most of these values are background signal.
Biological target: SHP2 C-SH2 domain E139D
Experiment: enrichment score (SH2-bound / input frequency) (ratio); bacterial display of known human phosphotyrosine sites (pTyr-Var adds point mutants) read by sequencing; higher = stronger binding; tyrosines were phosphorylated by kinases first
Settings: peptide library: pTyr-Var
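Note: displayed peptides selected on beads carrying the immobilized SH2 domain, with library peptides lacking any tyrosine serving as negative controls.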

Enrichment score, inactive:
FHLLPYTVRAM [PARS2_Y93_YF] 1.92, EASGIYVKSII [PATJ_Y396] 0.507, EKESCYILHSS [PATJ_Y783_E779K] 0.861, EEKSCYILHSS [PATJ_Y783_E780K] 0.98, KILGRYFETSS [PAX2_Y72_G76S_YF] 1.26, KIPGRYYETGS [PAX2_Y72_L69P] 0.872, KILGTYFETGS [PAX2_Y72_R71T_YF] 1.17, KILGRYFETGS [PAX2_Y72_YF] 1.26, ILGRYYETGSI [PAX2_Y73] 1.07, IPGRFYETGSI [PAX2_Y73_L69P_YF] 0.975, ILGRFYETGSI [PAX2_Y73_YF] 1.3, VDDEIYYFRKP [PBRM1_Y1289] 0.784, LHSEAYLKFIE [PBRM1_Y1610_YF] 1.28, VCHELYNAIRD [PBRM1_Y54_T56A] 1.08, LCHELYNTIRD [PBRM1_Y54_V49L] 1.42, EAVKNYTDKRG [PBRM1_Y672] 0.561, VECRVYAEDPY [PCCA_Y401] 0.892, VECQVYAEDPY [PCCA_Y401_R399Q] 0.888

Biological target: SHP2 C-SH2 domain wild-type
Experiment: as above
Settings: peptide library: pTyr-Var

Enrichment score, inactive:
FHLLPYTVRAM [PARS2_Y93_YF] 1.75, EASGIYVKSII [PATJ_Y396] 0.601, EKESCYILHSS [PATJ_Y783_E779K] 1.22, EEKSCYILHSS [PATJ_Y783_E780K] 0.974, KILGRYFETSS [PAX2_Y72_G76S_YF] 1.25, KIPGRYYETGS [PAX2_Y72_L69P] 0.756, KILGTYFETGS [PAX2_Y72_R71T_YF] 1.25, KILGRYFETGS [PAX2_Y72_YF] 1.35, ILGRYYETGSI [PAX2_Y73] 0.918, IPGRFYETGSI [PAX2_Y73_L69P_YF] 0.96, ILGRFYETGSI [PAX2_Y73_YF] 1.12, VDDEIYYFRKP [PBRM1_Y1289] 0.932, LHSEAYLKFIE [PBRM1_Y1610_YF] 1.7, VCHELYNAIRD [PBRM1_Y54_T56A] 1.1, LCHELYNTIRD [PBRM1_Y54_V49L] 0.715, EAVKNYTDKRG [PBRM1_Y672] 0.668, VECRVYAEDPY [PCCA_Y401] 1.28, VECQVYAEDPY [PCCA_Y401_R399Q] 1.28

Biological target: SHP2 N-SH2 domain L43F
Experiment: as above
Settings: peptide library: pTyr-Var

Enrichment score, inactive:
FHLLPYTVRAM [PARS2_Y93_YF] 1.92, EASGIYVKSII [PATJ_Y396] 0.548, EKESCYILHSS [PATJ_Y783_E779K] 0.923, EEKSCYILHSS [PATJ_Y783_E780K] 1.06, KILGRYFETSS [PAX2_Y72_G76S_YF] 1.11, KIPGRYYETGS [PAX2_Y72_L69P] 1.04, KILGTYFETGS [PAX2_Y72_R71T_YF] 1.08, KILGRYFETGS [PAX2_Y72_YF] 1.15, ILGRYYETGSI [PAX2_Y73] 0.982, IPGRFYETGSI [PAX2_Y73_L69P_YF] 1.02, ILGRFYETGSI [PAX2_Y73_YF] 1.91, VDDEIYYFRKP [PBRM1_Y1289] 0.763, LHSEAYLKFIE [PBRM1_Y1610_YF] 1.55, VCHELYNAIRD [PBRM1_Y54_T56A] 1.12, LCHELYNTIRD [PBRM1_Y54_V49L] 0.722, EAVKNYTDKRG [PBRM1_Y672] 0.673, VECRVYAEDPY [PCCA_Y401] 0.799, VECQVYAEDPY [PCCA_Y401_R399Q] 1.17

Biological target: SHP2 N-SH2 domain T42A
Experiment: as above
Settings: peptide library: pTyr-Var

Enrichment score, inactive:
FHLLPYTVRAM [PARS2_Y93_YF] 1.98, EASGIYVKSII [PATJ_Y396] 0.57, EKESCYILHSS [PATJ_Y783_E779K] 0.905, EEKSCYILHSS [PATJ_Y783_E780K] 0.95, KILGRYFETSS [PAX2_Y72_G76S_YF] 1.54, KIPGRYYETGS [PAX2_Y72_L69P] 0.806, KILGTYFETGS [PAX2_Y72_R71T_YF] 1.06, KILGRYFETGS [PAX2_Y72_YF] 1.46, ILGRYYETGSI [PAX2_Y73] 1.04, IPGRFYETGSI [PAX2_Y73_L69P_YF] 0.79, ILGRFYETGSI [PAX2_Y73_YF] 1.19, VDDEIYYFRKP [PBRM1_Y1289] 0.565, LHSEAYLKFIE [PBRM1_Y1610_YF] 1.15, VCHELYNAIRD [PBRM1_Y54_T56A] 0.825, LCHELYNTIRD [PBRM1_Y54_V49L] 0.713, EAVKNYTDKRG [PBRM1_Y672] 0.546, VECRVYAEDPY [PCCA_Y401] 0.843, VECQVYAEDPY [PCCA_Y401_R399Q] 0.988

Biological target: SHP2 N-SH2 domain T52S
Experiment: as above
Settings: peptide library: pTyr-Var

Enrichment score, inactive:
FHLLPYTVRAM [PARS2_Y93_YF] 2.12, EASGIYVKSII [PATJ_Y396] 0.565, EKESCYILHSS [PATJ_Y783_E779K] 1.06, EEKSCYILHSS [PATJ_Y783_E780K] 0.762, KILGRYFETSS [PAX2_Y72_G76S_YF] 1.47, KIPGRYYETGS [PAX2_Y72_L69P] 0.973, KILGTYFETGS [PAX2_Y72_R71T_YF] 0.952, KILGRYFETGS [PAX2_Y72_YF] 1.09, ILGRYYETGSI [PAX2_Y73] 0.947, IPGRFYETGSI [PAX2_Y73_L69P_YF] 1.18, ILGRFYETGSI [PAX2_Y73_YF] 1.86, VDDEIYYFRKP [PBRM1_Y1289] 0.66, LHSEAYLKFIE [PBRM1_Y1610_YF] 1.06, VCHELYNAIRD [PBRM1_Y54_T56A] 1.04, LCHELYNTIRD [PBRM1_Y54_V49L] 0.937, EAVKNYTDKRG [PBRM1_Y672] 0.555, VECRVYAEDPY [PCCA_Y401] 0.842, VECQVYAEDPY [PCCA_Y401_R399Q] 0.774

Biological target: SHP2 N-SH2 domain wild-type
Experiment: as above
Settings: peptide library: pTyr-Var

Enrichment score, inactive:
FHLLPYTVRAM [PARS2_Y93_YF] 2.02, EASGIYVKSII [PATJ_Y396] 0.678, EKESCYILHSS [PATJ_Y783_E779K] 1.51, EEKSCYILHSS [PATJ_Y783_E780K] 1.11, KILGRYFETSS [PAX2_Y72_G76S_YF] 1.27, KIPGRYYETGS [PAX2_Y72_L69P] 0.889, KILGTYFETGS [PAX2_Y72_R71T_YF] 1.38, KILGRYFETGS [PAX2_Y72_YF] 1.23, ILGRYYETGSI [PAX2_Y73] 1.01, IPGRFYETGSI [PAX2_Y73_L69P_YF] 1.03, ILGRFYETGSI [PAX2_Y73_YF] 1.13, VDDEIYYFRKP [PBRM1_Y1289] 0.873, LHSEAYLKFIE [PBRM1_Y1610_YF] 1.38, VCHELYNAIRD [PBRM1_Y54_T56A] 1.39, LCHELYNTIRD [PBRM1_Y54_V49L] 0.883, EAVKNYTDKRG [PBRM1_Y672] 0.732, VECRVYAEDPY [PCCA_Y401] 1.26, VECQVYAEDPY [PCCA_Y401_R399Q] 1.62

Reference: the supplement of paper PMC10369915
